In PubChem BioAssay AID686971 (National Center for Advancing Translational Sciences (NCATS), 2013):
Screen size: about 360,000 compounds; about 7,500 (2.1%) were called active. Inconclusive results, whose numbers are uncertain, are shown with a selection of clear calls. Calls follow the shape of the dose curve; as a rule, active = well fitted cell-killing curve with a large enough effect; inconclusive = small, poorly fitted or top-dose-only effect, or effect the other way, or another doubt; inactive = no such curve, though single readings can be large or run the other way. Potencies of inconclusive entries are left out as doubtful fits.

Assay: qHTS for induction of synthetic lethality in tumor cells producing 2HG: qHTS for the HT-1080-IDH1KD cell line;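 as to activity, negative = toxicity: 0% = DMSO wells and -100% = cell-free medium wells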
Conditions: HT-1080 IDH1 knockdown viability, ATP luminescence, 48 h; activity, negative = toxicity: at 46.1 µM (top of the series) unless noted
How it was run: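 HT-1080-IDH1KD cells (IDH1 knocked down), 750/well in RPMI with 5% FBS, treated with compound 48 h at 37 degrees C. Viability by CellTiter-Glo luminescence, normalised to DMSO and no-cell wells; concentration-response curves classed.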
Potency is read from the fitted curve at half-maximal effect; tags tell the direction and shape of the fitted curve.

SMILES	Potency	activity, negative = toxicity
Cc1ccc2nc3n(c(=O)c2c1)-c1cc2ccccc2cc1C(=O)NC3Cc1ccc(O)cc1 (centres undefined)	active: 13 µM	
O=c1c2ccccc2nc(-c2ccc([N+](=O)[O-])cc2)n1O	inconclusive [cytotoxic, single point]	
CCOC(=O)C1=C(NC(=S)NC(=O)c2ccccc2)c2ccccc2CC1(C)CC (centres undefined)	inconclusive [cytotoxic, partial curve]	
C#CCCC(=O)c1ccccc1/C=[N+](\[O-])c1ccccc1		inactive: 1.32%
COc1ccccc1C1CC(c2c(-c3ccccc3)c3cc(Cl)ccc3[nH]c2=O)=NN1S(C)(=O)=O (centres undefined)	inconclusive [cytotoxic, single point]	
Cc1ccc2[nH]c(=O)c(CN(CCCN3CCOCC3)Cc3nnnn3C3CCCC3)cc2c1	inconclusive [cytotoxic, single point]	
C=CCN(C(=O)c1ccccc1)c1ccc(OC)cc1	inconclusive [cytotoxic, partial curve]	
Cc1cnc(C(=O)Nc2ccc(N3CCN(C(=O)OC(C)(C)C)CC3)cc2)cn1	inconclusive [cytotoxic, full curve]	
CC1CN(Cc2cc(=O)oc3cc(O)ccc23)CC(C)O1 (centres undefined)		inactive: -1.98%
CCCCCC(=O)NC(=S)NC1C2CC3CC(C2)CC1C3 (centres undefined)	inconclusive [cytotoxic, partial curve, poor fit]	
Cn1nccc1C(=O)N1CCCC(N2CCN(Cc3ccc4c(c3)OCO4)CC2)C1 (centres undefined)		inactive: -2.94%
O=C(COc1ccccc1)NCC(=O)N/N=C/c1cc(Br)ccc1OCc1ccccc1	inconclusive [cytotoxic, single point]	
CN(Cc1ccccc1OCCO)CC1CCCN(CCc2ccc(Cl)cc2)C1 (centres undefined)	inconclusive [cytotoxic, partial curve]	
COc1ccc(C(=O)C2CCCN(C(=O)c3cccc(N4CCCC4=O)c3)C2)cc1OC (centres undefined)		inactive: 1.49%
C[C@@H]1CCCCO[C@@H](CN(C)Cc2ccc(Cl)c(Cl)c2)[C@@H](C)CN([C@H](C)CO)C(=O)c2cc(NC(=O)CCC(F)(F)F)ccc2O1	inconclusive [cytotoxic, single point]	
N#Cc1nc(COc2ccc(-c3ccccc3)cc2)oc1NCc1cccnc1	inconclusive [cytotoxic, single point]	
Cc1ccc(S(=O)(=O)N2CCCCC2)cc1NC(=O)Cn1ncc(Cl)c(Cl)c1=O	active: 14.6 µM	
COc1cc(C2C(=O)N(C3CCCC3)CC(=O)N2Cc2ccco2)ccc1OC(C)C (centres undefined)		inactive: -0.853%
CN1C(=S)N(c2cccnc2)C(=O)/C1=C\c1ccc(C(C)(C)C)cc1	inconclusive [cytotoxic, single point]	
Cc1ccc(NS(=O)(=O)c2ccc(C(=O)NCC(c3ccco3)N(C)C)cc2)cc1 (centres undefined)	inconclusive [cytotoxic, single point]	
C=CCN1C(=O)C2(NC(=O)c3ccccc3N2)c2ccccc21 (centres undefined)	inconclusive [cytotoxic, single point]	
O=C(OCC(=O)N1CCN(c2ccccc2)CC1)c1cc(Cl)ccc1[N+](=O)[O-]		inactive: -1.11%

SMILES	Potency	activity, negative = toxicity
COc1ccc(NC(=O)C2CCCN(S(=O)(=O)c3ccc(-n4cnnn4)cc3)C2)cc1 (centres undefined)	inconclusive [cytotoxic, partial curve]	
CCc1c(C)nc2ncnn2c1N1CCCC(C(=O)NCCc2ccccc2)C1 (centres undefined)	inconclusive [cytotoxic, single point]	
CCOc1ccc(NC(=S)NCCCc2ccccc2)cc1		inactive: 0.513%
O=C(c1ccc(Br)cc1)N(Cc1ccco1)C1CCS(=O)(=O)C1 (centres undefined)		inactive: -8.54%
CCOc1cccc(NC(=O)C2CC(=O)N(C)C(=Nc3cccc(F)c3)S2)c1 (centres undefined)	inconclusive [cytotoxic, single point]	
COC1CCN(Cc2cn(Cc3ccccc3)nc2-c2cc3ccccc3o2)CC1	active: 25.9 µM	
Cc1cccc(CN2C(=O)NC(c3ccccc3)(c3ccccc3)C2=O)c1	inconclusive [cytotoxic, single point]	
O=C(CN1C2=NCCN2c2ccccc21)c1ccc2c(c1)OCO2	inconclusive [cytotoxic, single point]	
CCOP(=O)(c1ccccc1)c1nc(-c2ccccc2Cl)oc1N1CCCCC1 (centres undefined)	inconclusive [cytotoxic, single point]	
O=C(c1cccc(S(=O)(=O)N2CCc3ccccc32)c1)N1CCc2ccccc2C1		inactive: -22.7%
C#CCN(C[C@H]1[C@H](OC(=O)NC2CC2)[C@H](OC(=O)NC2CC2)C[C@@H](C(=O)OC)[C@H]1C(=O)OC)S(=O)(=O)c1ccc(C)cc1		inactive: 4.26%
CCOC(=O)N1CCN(Cc2nc3cc(NC(=O)CC(C)C)ccc3n2CC)CC1	inconclusive [cytotoxic, partial curve]	
FC(F)(F)c1cnc(N2CCN(C(=S)NCc3ccccc3)CC2)c(Cl)c1	inconclusive [cytotoxic, single point]	
CCc1[nH]nc2c1C1(CCOC1C)C(C#N)=C(N)O2 (centres undefined)		inactive: 9.85%
COc1ccc(Cl)cc1CC1(C)C(=O)Nc2ccc(-c3ccccc3OC)cc21 (centres undefined)	inconclusive [cytotoxic, single point]	
C#CCSc1nnc(-c2ccc(OC)cc2)o1	inconclusive [cytotoxic, single point]	
COc1ccccc1NC(=O)COC(=O)c1ccc2c(c1)OCCO2		inactive: -0.795%
Cc1ccc(C(=O)Nc2ccc(Br)c(C(F)(F)F)c2)cc1	inconclusive [cytotoxic, single point]	
COCCn1c(CN2CCN(C)CC2)nc2c1c(=O)n(C)c(=O)n2C		inactive: 7.05%
OC(c1ccccc1)c1nc(-c2cncnc2)cs1 (centres undefined)		inactive: 2.03%
COc1ccc(NC(=O)C2CCCCN2S(=O)(=O)c2ccc(F)cc2)cc1 (centres undefined)		inconclusive: -7.81% [cytotoxic]
COc1ccc(-c2c[n+](CC(=O)N3c4ccccc4Sc4ccccc43)c3n2CCC3)cc1	inconclusive [cytotoxic, single point]	
